{"sequences": {"note": "The chains behind the UniProt entries cited, without tags or fusion partners. Where a name states a change or a piece, a line headed by the entry shows the natural chain unless it says otherwise. A line that says so, or that is headed by a name, gives the form on record, which may keep a tag or linker.", "UniProt P06748": "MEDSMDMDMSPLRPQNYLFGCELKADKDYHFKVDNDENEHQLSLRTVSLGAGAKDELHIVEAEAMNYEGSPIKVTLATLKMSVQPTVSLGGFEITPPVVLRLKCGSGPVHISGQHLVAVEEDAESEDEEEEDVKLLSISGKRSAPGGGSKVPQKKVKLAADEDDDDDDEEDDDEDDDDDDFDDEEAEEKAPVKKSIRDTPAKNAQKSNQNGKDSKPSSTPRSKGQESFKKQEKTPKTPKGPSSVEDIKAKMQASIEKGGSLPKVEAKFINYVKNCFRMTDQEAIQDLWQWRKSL", "GST‐NPM1 B23.2 (P06748, form named)": "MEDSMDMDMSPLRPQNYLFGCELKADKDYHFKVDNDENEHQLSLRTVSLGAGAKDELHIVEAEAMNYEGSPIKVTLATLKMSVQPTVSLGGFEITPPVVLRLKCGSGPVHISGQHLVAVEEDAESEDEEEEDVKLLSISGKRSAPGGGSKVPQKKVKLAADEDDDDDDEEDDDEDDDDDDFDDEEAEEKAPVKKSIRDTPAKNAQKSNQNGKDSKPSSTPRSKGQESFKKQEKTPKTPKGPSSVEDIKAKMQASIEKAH", "UniProt Q99814": "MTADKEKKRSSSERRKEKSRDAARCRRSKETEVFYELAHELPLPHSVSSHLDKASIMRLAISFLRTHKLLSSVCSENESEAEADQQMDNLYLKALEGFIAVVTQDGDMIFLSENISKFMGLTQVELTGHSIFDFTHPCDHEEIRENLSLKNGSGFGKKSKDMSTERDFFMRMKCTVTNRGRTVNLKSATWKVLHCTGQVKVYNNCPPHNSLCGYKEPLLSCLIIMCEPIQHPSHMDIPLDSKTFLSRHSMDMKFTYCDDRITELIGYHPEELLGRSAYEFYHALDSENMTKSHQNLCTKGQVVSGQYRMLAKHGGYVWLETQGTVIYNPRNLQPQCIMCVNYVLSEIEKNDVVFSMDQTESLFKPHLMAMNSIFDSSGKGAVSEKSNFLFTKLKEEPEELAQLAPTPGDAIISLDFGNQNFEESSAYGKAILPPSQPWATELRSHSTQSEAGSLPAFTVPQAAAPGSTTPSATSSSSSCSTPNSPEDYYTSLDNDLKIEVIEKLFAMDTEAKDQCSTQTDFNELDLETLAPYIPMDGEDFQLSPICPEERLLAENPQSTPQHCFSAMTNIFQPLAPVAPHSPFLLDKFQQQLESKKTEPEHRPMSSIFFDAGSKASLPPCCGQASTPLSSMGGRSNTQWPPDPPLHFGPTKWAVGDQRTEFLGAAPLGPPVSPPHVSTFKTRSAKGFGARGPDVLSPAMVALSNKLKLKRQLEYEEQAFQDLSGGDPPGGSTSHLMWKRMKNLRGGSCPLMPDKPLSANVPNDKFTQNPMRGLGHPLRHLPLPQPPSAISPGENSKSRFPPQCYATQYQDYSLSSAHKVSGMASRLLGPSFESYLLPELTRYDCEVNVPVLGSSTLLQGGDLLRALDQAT", "UniProt P27540": "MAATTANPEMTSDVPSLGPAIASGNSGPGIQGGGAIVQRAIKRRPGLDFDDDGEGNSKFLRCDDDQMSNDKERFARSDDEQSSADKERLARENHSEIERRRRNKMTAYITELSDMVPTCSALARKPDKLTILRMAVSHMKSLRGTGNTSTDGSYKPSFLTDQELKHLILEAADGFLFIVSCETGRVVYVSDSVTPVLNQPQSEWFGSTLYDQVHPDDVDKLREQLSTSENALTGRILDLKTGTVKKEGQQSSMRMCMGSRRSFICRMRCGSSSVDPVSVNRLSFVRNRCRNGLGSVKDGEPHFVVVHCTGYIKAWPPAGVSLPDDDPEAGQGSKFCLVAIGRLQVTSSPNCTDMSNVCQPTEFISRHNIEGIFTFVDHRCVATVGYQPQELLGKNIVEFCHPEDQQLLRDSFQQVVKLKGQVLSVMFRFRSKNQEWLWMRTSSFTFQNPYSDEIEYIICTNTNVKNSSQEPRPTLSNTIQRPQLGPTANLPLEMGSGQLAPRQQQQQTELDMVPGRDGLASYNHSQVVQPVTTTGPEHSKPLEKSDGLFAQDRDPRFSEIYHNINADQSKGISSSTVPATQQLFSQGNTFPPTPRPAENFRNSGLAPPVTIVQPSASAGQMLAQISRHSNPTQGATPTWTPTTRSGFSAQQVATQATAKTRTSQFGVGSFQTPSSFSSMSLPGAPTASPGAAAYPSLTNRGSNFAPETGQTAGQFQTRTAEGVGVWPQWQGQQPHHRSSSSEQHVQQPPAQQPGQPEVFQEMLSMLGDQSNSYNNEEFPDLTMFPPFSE"}, "source": "paper PMC8637566", "about": "“ERK signaling controls productive HIF‐1 binding to chromatin and cancer cell adaptation to hypoxia through HIF‐1α interaction with NPM1” (Molecular Oncology, 2021)", "molecules": {"B1": {"name": "TAT‐ETD(SE)‐FLAG peptide (peptide, UniProt Q16665 616-658, looked up)", "chain": "TTTATTDELKTVTKDRMEDIKILIAEPSPTHIHKETTSATSSP", "notes": "HIF-1α ERK targeted domain (ETD), residues 616–658, Ser641 to Glu; source: E. coli, purified"}}, "key": {"GST‐NPM1 B23.2 [1]": {"molecular_target": "GST‐NPM1 B23.2 (UniProt P06748)", "assay": "pull-down; GST-NPM1 forms immobilised on GSH-agarose as baits, bacterially expressed and purified HIF-1α(348–826)SE or TAT-ETD-SE-FLAG peptide as prey; immunoblot with anti-HIF-1α or anti-Flag; both purified"}, "GST‐NPM1 B23.2 [2]": {"molecular_target": "GST‐NPM1 B23.2 (UniProt P06748)", "assay": "pull-down; GST-NPM1 splice variants immobilised on GSH-agarose as baits, soluble extracts of hypoxic HeLa cells as prey; anti-HIF-1α immunoblot; only the target purified"}, "GST‐NPM1 B23.1": {"molecular_target": "T1, GST‐NPM1 B23.1 (UniProt P06748 1-294)", "T1 construct": "NPM1 isoform B23.1, the most abundant form, with the C-terminal aromatic stretch; also called GST‐B23.1; B23.1 form of recombinant NPM1; source: E. coli BL21 (RIL), purified (GSH‐agarose)", "assay": "pull-down; GST-NPM1 splice variants immobilised on GSH-agarose as baits, soluble extracts of hypoxic HeLa cells as prey; anti-HIF-1α immunoblot; only the target purified"}, "[3]": {"molecular_target": "nucleophosmin (NPM1), endogenous (human (endogenous in HeLa and Huh7)) (UniProt P06748)", "assay": "co-IP; anti-NPM1 IP from HeLa cells incubated at 1% O2 for 16 h and treated with 5 μM U0126 (MEK inhibitor); immunoblot for HIF-1α"}, "[4]": {"molecular_target": "nucleophosmin (NPM1), endogenous (human (endogenous in HeLa and Huh7)) (UniProt P06748)", "assay": "co-IP; anti-NPM1 IP from HeLa cells incubated at 1% O2 for 16 h, untreated; immunoblot for HIF-1α, ARNT, HIF-2α"}, "GST‐ETD‐SA": {"molecular_target": "GST‐ETD‐SA (UniProt Q16665)", "assay": "pull-down; GST-tagged HIF-1α ETD or HIF-1α(348–826) forms immobilised on GSH-agarose as baits, total/soluble HeLa protein extracts as prey; elution by GSH or by TEV cleavage of the GST moiety; SDS/PAGE staining, mass spectrometry of the 36 kDa band, anti-NPM1 immunoblot; only the target purified"}, "GST‐ETD‐SE": {"molecular_target": "GST‐ETD‐SE (UniProt Q16665)", "assay": "pull-down; GST-tagged HIF-1α ETD or HIF-1α(348–826) forms immobilised on GSH-agarose as baits, total/soluble HeLa protein extracts as prey; elution by GSH or by TEV cleavage of the GST moiety; SDS/PAGE staining, mass spectrometry of the 36 kDa band, anti-NPM1 immunoblot; only the target purified"}, "GST‐HIF‐1α(348–826) SE": {"molecular_target": "GST‐HIF‐1α(348–826) SE (UniProt Q16665)", "assay": "pull-down; GST-tagged HIF-1α ETD or HIF-1α(348–826) forms immobilised on GSH-agarose as baits, total/soluble HeLa protein extracts as prey; elution by GSH or by TEV cleavage of the GST moiety; SDS/PAGE staining, mass spectrometry of the 36 kDa band, anti-NPM1 immunoblot; only the target purified"}, "GFP‐HIF‐1α SE": {"molecular_target": "GFP‐HIF‐1α SE (UniProt Q16665)", "assay": "co-IP; anti-GFP IP from HeLa cells transiently expressing GFP-tagged full-length HIF-1α forms, 20 h post-transfection; immunoblot for ARNT and NPM1"}, "GFP‐HIF‐1α WT": {"molecular_target": "GFP‐HIF‐1α WT (UniProt Q16665)", "assay": "co-IP; anti-GFP IP from HeLa cells transiently expressing GFP-tagged full-length HIF-1α forms, 20 h post-transfection; immunoblot for ARNT and NPM1"}, "GFP‐HIF‐1α IA/SA": {"molecular_target": "GFP‐HIF‐1α IA/SA (UniProt Q16665)", "assay": "co-IP; anti-GFP IP from HeLa cells transiently expressing GFP-tagged full-length HIF-1α forms, 20 h post-transfection; immunoblot for ARNT and NPM1"}, "GFP‐HIF‐1α S247A": {"molecular_target": "GFP‐HIF‐1α S247A (UniProt Q16665)", "assay": "co-IP; anti-GFP IP from HeLa cells transiently expressing GFP-tagged full-length HIF-1α forms, 20 h post-transfection; immunoblot for ARNT and NPM1"}, "TAT‐ETD‐FLAG peptide IA": {"molecular_target": "TAT‐ETD‐FLAG peptide IA (UniProt Q16665)", "assay": "co-IP; anti-FLAG IP from Huh7 cells grown at 1% O2 and treated with ~380 nM TAT-ETD-FLAG peptide forms for 5 h; immunoblot for NPM1; only the target purified"}, "TAT‐ETD(SE)‐FLAG peptide": {"molecular_target": "TAT‐ETD(SE)‐FLAG peptide (UniProt Q16665)", "assay": "co-IP; anti-FLAG IP from Huh7 cells grown at 1% O2 and treated with ~380 nM TAT-ETD-FLAG peptide forms for 5 h; immunoblot for NPM1; only the target purified"}, "[5]": {"molecular_target": "HIF‐1α, endogenous (human (endogenous in HeLa and Huh7)) (UniProt Q16665)", "assay": "co-IP; anti-HIF-1α IP from Huh7 cells grown at 1% O2 and treated with ~380 nM TAT-ETD-FLAG peptide forms for 5 h; immunoblot for NPM1"}, "TAT‐ETD‐FLAG peptide SA": {"molecular_target": "TAT‐ETD‐FLAG peptide SA (UniProt Q16665)", "assay": "condition: ~380 nM peptide added to the cells for 5 h; co-IP; anti-FLAG IP from Huh7 cells grown at 1% O2 and treated with ~380 nM TAT-ETD-FLAG peptide forms for 5 h; immunoblot for NPM1; only the target purified"}, "[6]": {"molecular_target": "HIF‐1α, endogenous (human (endogenous in HeLa and Huh7)) (UniProt Q16665)", "assay": "co-IP; anti-HIF-1α IP from HeLa cells grown at 21% or 1% O2 for 16 h, untreated, with 5 μM U0126 or deprived of serum; immunoblot for NPM1"}}, "note": "These are yes or no findings as the source states them, for the method shown. For some assays here: Binding seen in cells or lysates may run through a third protein. Some entries that bind do so weakly or less than the wild type.", "data": [{"molecule": "HIF‐1α(348–826)SE, purified, in solution (from UniProt Q16665 348-826) (domain or fragment)", "values": [{"measurement": "binding", "setting": "GST‐NPM1 B23.2 [1]", "result": "no binding"}]}, {"molecule": "HIF‐1α, endogenous (from UniProt Q16665 1-826)", "values": [{"measurement": "binding", "setting": "GST‐NPM1 B23.2 [2]", "result": "no binding"}, {"measurement": "binding", "setting": "GST‐NPM1 B23.1", "result": "binds"}, {"measurement": "binding", "setting": "[3]", "result": "no binding (condition: with 5 μM U0126 (MEK inhibitor))"}, {"measurement": "binding", "setting": "[4]", "result": "binds"}]}, {"molecule": "HIF‐2α, endogenous (from UniProt Q99814 1-870)", "values": [{"measurement": "binding", "setting": "[4]", "result": "no binding"}]}, {"molecule": "aryl hydrocarbon receptor nuclear translocator (ARNT), endogenous (from UniProt P27540 1-789)", "values": [{"measurement": "binding", "setting": "[4]", "result": "binds"}]}, {"molecule": "nucleophosmin (NPM1), endogenous (from UniProt P06748 1-294)", "values": [{"measurement": "binding", "setting": "GST‐ETD‐SA", "result": "no binding"}, {"measurement": "binding", "setting": "GST‐ETD‐SE", "result": "binds"}, {"measurement": "binding", "setting": "GST‐HIF‐1α(348–826) SE", "result": "binds"}, {"measurement": "binding", "setting": "GFP‐HIF‐1α SE", "result": "binds"}, {"measurement": "binding", "setting": "GFP‐HIF‐1α WT", "result": "binds"}, {"measurement": "binding", "setting": "GFP‐HIF‐1α IA/SA", "result": "binds weakly"}, {"measurement": "binding", "setting": "GFP‐HIF‐1α S247A", "result": "binds"}, {"measurement": "binding", "setting": "TAT‐ETD‐FLAG peptide IA", "result": "binds"}, {"measurement": "binding", "setting": "TAT‐ETD(SE)‐FLAG peptide", "result": "binds"}, {"measurement": "binding", "setting": "[5]", "result": "binds"}, {"measurement": "binding", "setting": "TAT‐ETD‐FLAG peptide SA", "result": "no binding"}, {"measurement": "binding", "setting": "[6]", "result": "binds"}]}, {"molecule": "B1", "values": [{"measurement": "binding", "setting": "GST‐NPM1 B23.2 [1]", "result": "no binding"}]}]}
